Experimental data as given in the antibiotic and cytotoxicity screens of Wong et al. (2023).
This is one part of the list.

What was measured:
HSkMC = human skeletal muscle cells; experiment: cytotoxicity call (relative viability < 0.9); conditions: 10 µM
HepG2 = experiment: cytotoxicity call (relative viability < 0.9); conditions: 10 µM
S. aureus RN4220 = experiment: growth inhibition call (relative growth <= 0.2); conditions: 50 µM

COCCNC(=O)C[C@@H]1C[C@@H]2c3cc(NC(=O)Nc4ccc(C(F)(F)F)cc4)ccc3O[C@@H]2[C@H](CO)O1
inactive: cytotoxicity call (HSkMC) | cytotoxicity call (HepG2) | growth inhibition call (S. aureus RN4220)

O=C(N[C@H]1CC[C@@H](CCNS(=O)(=O)c2ccc(F)cc2)O[C@H]1CO)C1CC1
inactive: cytotoxicity call (HSkMC) | cytotoxicity call (HepG2) | growth inhibition call (S. aureus RN4220)

CN1C(=O)c2cc(NC(=O)c3cscn3)ccc2OC[C@@H]2O[C@@H](CC(=O)N3CCOCC3)CC[C@H]21
inactive: cytotoxicity call (HSkMC) | cytotoxicity call (HepG2) | growth inhibition call (S. aureus RN4220)

COc1ccc(S(=O)(=O)N(C)C[C@H]2OCCCC[C@@H](C)Oc3ccc(NC(=O)Nc4ccccc4)cc3C(=O)N([C@H](C)CO)C[C@@H]2C)cc1
inactive: cytotoxicity call (HSkMC) | cytotoxicity call (HepG2) | growth inhibition call (S. aureus RN4220)

Cn1nnnc1S[C@H]1CCNC1
inactive: cytotoxicity call (HSkMC) | cytotoxicity call (HepG2) | growth inhibition call (S. aureus RN4220)

N[C@@]1(C(=O)O)CO[C@H]2[C@H](C(=O)O)[C@H]21
inactive: cytotoxicity call (HSkMC) | cytotoxicity call (HepG2) | growth inhibition call (S. aureus RN4220)

C[C@H](CO)N1C[C@H](C)[C@@H](CN(C)Cc2ccc3c(c2)OCO3)Oc2ccc(NC(=O)Nc3cccc4ccccc34)cc2C1=O
inactive: cytotoxicity call (HSkMC) | cytotoxicity call (HepG2) | growth inhibition call (S. aureus RN4220)

C[C@@H]1CCCCO[C@H](CN(C)C(=O)Nc2ccc(F)cc2)[C@H](C)CN([C@@H](C)CO)C(=O)c2cc(NC(=O)Nc3ccccc3)ccc2O1
inactive: cytotoxicity call (HSkMC) | cytotoxicity call (HepG2) | growth inhibition call (S. aureus RN4220)

COc1ccccc1S(=O)(=O)N[C@@H]1C=C[C@H](CC(=O)N2CCOCC2)O[C@@H]1CO
inactive: cytotoxicity call (HSkMC) | cytotoxicity call (HepG2) | growth inhibition call (S. aureus RN4220)

Cc1ccc(S(=O)(=O)N(C)C[C@@H]2Oc3ncc(C#CC(C)(C)O)cc3C(=O)N([C@H](C)CO)C[C@@H]2C)cc1
inactive: cytotoxicity call (HSkMC) | cytotoxicity call (HepG2) | growth inhibition call (S. aureus RN4220)

Cc1ccc(S(=O)(=O)N[C@@H]2CC[C@H](CCNC(=O)CN3CCOCC3)O[C@@H]2CO)cc1
inactive: cytotoxicity call (HSkMC) | cytotoxicity call (HepG2) | growth inhibition call (S. aureus RN4220)

C[C@@H]1CCCCO[C@@H](CN(C)S(=O)(=O)c2ccc(Cl)cc2)[C@@H](C)CN([C@H](C)CO)C(=O)c2cc(NC(=O)Nc3cccc4ccccc34)ccc2O1
inactive: cytotoxicity call (HSkMC) | cytotoxicity call (HepG2) | growth inhibition call (S. aureus RN4220)

COCCNC(=O)C[C@H]1CC[C@H]2[C@H](COc3ccc(NS(=O)(=O)c4ccc(Cl)cc4)cc3C(=O)N2C)O1
inactive: cytotoxicity call (HSkMC) | cytotoxicity call (HepG2) | growth inhibition call (S. aureus RN4220)

COc1ccc(C#Cc2ccc3c(c2)[C@]2(C(=O)N3)[C@H](c3ccc(O)cc3)N3[C@H](c4ccccc4)[C@H](c4ccccc4)OC(=O)[C@H]3[C@@H]2C(=O)NC[C@H](O)c2ccccc2)cc1
inactive: cytotoxicity call (HSkMC) | cytotoxicity call (HepG2) | growth inhibition call (S. aureus RN4220)

Cc1noc(C)c1NC(=O)N(C)C[C@H]1Oc2c(NS(C)(=O)=O)cccc2C(=O)N([C@H](C)CO)C[C@H]1C
inactive: cytotoxicity call (HSkMC) | cytotoxicity call (HepG2) | growth inhibition call (S. aureus RN4220)

COc1cc(OC)cc(C(=O)Nc2nc(-c3ccc4c(c3)CCN4C(=O)CN3CCOCC3)cs2)c1
inactive: cytotoxicity call (HSkMC) | cytotoxicity call (HepG2) | growth inhibition call (S. aureus RN4220)

C[C@@H]1CCCCO[C@@H](CN(C)Cc2ccc(C(F)(F)F)cc2)[C@H](C)CN([C@H](C)CO)C(=O)c2cc(NC(=O)C3CCCCC3)ccc2O1
inactive: cytotoxicity call (HSkMC) | cytotoxicity call (HepG2) | growth inhibition call (S. aureus RN4220)

CCCNC(=O)Nc1ccc2c(c1)OC[C@H](C)N(Cc1ccc(-c3ccccn3)cc1)C[C@H](C)[C@@H](OC)CN(C)C2=O
inactive: cytotoxicity call (HSkMC) | cytotoxicity call (HepG2) | growth inhibition call (S. aureus RN4220)

C[C@H]1CN([C@@H](C)CO)C(=O)c2cccc(NC(=O)c3nc4ccccc4s3)c2O[C@H]1CN(C)Cc1ccc(Cl)c(Cl)c1
inactive: cytotoxicity call (HSkMC) | cytotoxicity call (HepG2) | growth inhibition call (S. aureus RN4220)

C[C@@H]1CN([C@@H](C)CO)C(=O)CCCn2cc(nn2)CO[C@H]1CN(C)C(=O)Nc1cccc2ccccc12
inactive: cytotoxicity call (HSkMC) | cytotoxicity call (HepG2) | growth inhibition call (S. aureus RN4220)

CCN(CC)C(=O)N1CCN(C)CC1
inactive: cytotoxicity call (HSkMC) | cytotoxicity call (HepG2) | growth inhibition call (S. aureus RN4220)

C[C@@H]1CN([C@H](C)CO)C(=O)CCCn2cc(nn2)CO[C@@H]1CN(C)Cc1ccc(C(=O)Nc2ccccc2N)cc1
inactive: cytotoxicity call (HSkMC) | cytotoxicity call (HepG2) | growth inhibition call (S. aureus RN4220)

CC(=O)N[C@@H](CS)C(=O)O
inactive: cytotoxicity call (HSkMC) | cytotoxicity call (HepG2) | growth inhibition call (S. aureus RN4220)

O=C1O[C@@H](c2ccccc2)[C@@H](c2ccccc2)N2[C@@H](c3ccc(O)cc3)[C@]3(C(=O)Nc4ccc(C#CC5(O)CCCCCC5)cc43)[C@@H](C(=O)NC[C@H](O)c3ccccc3)[C@H]12
inactive: cytotoxicity call (HSkMC) | cytotoxicity call (HepG2) | growth inhibition call (S. aureus RN4220)

O=C(C[C@@H]1CC[C@H]2[C@@H](COC[C@@H](O)CN2S(=O)(=O)c2ccc(Oc3ccccc3)cc2)O1)NCCN1CCCCC1
inactive: cytotoxicity call (HSkMC) | cytotoxicity call (HepG2) | growth inhibition call (S. aureus RN4220)

CO[C@H](C(=O)N(C)C[C@H]1OCc2ccccc2-c2c(n(C)c3ccccc23)C(=O)N([C@H](C)CO)C[C@H]1C)c1ccccc1
inactive: cytotoxicity call (HSkMC) | cytotoxicity call (HepG2) | growth inhibition call (S. aureus RN4220)

CC(C)N1C[C@@H](C)[C@H](CN(C)Cc2ccc(Oc3ccccc3)cc2)Oc2c(cccc2N(C)C(=O)c2ccncc2)C1=O
inactive: cytotoxicity call (HSkMC) | cytotoxicity call (HepG2) | growth inhibition call (S. aureus RN4220)
